In the supplement of paper PMC10369915:
The list shows a part of the results. No stated cut-off is given here; in the data, active = 3.2 or more and inactive = the rest. Most of these values are background signal.

What was measured:
Assay in all cases: enrichment score (SH2-bound / input frequency) (ratio); bacterial display of known human phosphotyrosine sites (pTyr-Var adds point mutants) read by sequencing; higher = stronger binding; tyrosines were phosphorylated by kinases first
Conditions in all cases: peptide library: pTyr-Var
SHP2 C-SH2 domain E139D = biological target: SHP2 C-SH2 domain E139D
[1] = biological target: SHP2 C-SH2 domain wild-type
SHP2 N-SH2 domain L43F = biological target: SHP2 N-SH2 domain L43F
SHP2 N-SH2 domain T42A = biological target: SHP2 N-SH2 domain T42A
SHP2 N-SH2 domain T52S = biological target: SHP2 N-SH2 domain T52S
[2] = biological target: SHP2 N-SH2 domain wild-type

Measured: enrichment score
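Further: displayed peptides selected on beads carrying the immobilized SH2 domain, with library peptides lacking any tyrosine serving as negative controls.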

B1: DOCK3_Y548_C550S (peptide)
chain: HELYVYKSDEN
inactive: SHP2 C-SH2 domain E139D 0.881 | [1] 1 | SHP2 N-SH2 domain L43F 0.781 | SHP2 N-SH2 domain T42A 0.881 | SHP2 N-SH2 domain T52S 0.89 | [2] 0.928

B2: DNTTIP2_Y427 (peptide)
chain: CDTKLYTSAPN
inactive: SHP2 C-SH2 domain E139D 0.631 | [1] 0.766 | SHP2 N-SH2 domain L43F 0.698 | SHP2 N-SH2 domain T42A 0.649 | SHP2 N-SH2 domain T52S 0.648 | [2] 0.665

B3: DNAI2_Y7 (peptide)
chain: EIVYVYVKKRS
inactive: SHP2 C-SH2 domain E139D 0.419 | [1] 0.689 | SHP2 N-SH2 domain L43F 0.493 | SHP2 N-SH2 domain T42A 0.519 | SHP2 N-SH2 domain T52S 0.553 | [2] 0.65

B4: DNMT3B_Y815_V818M (peptide)
chain: GFPVHYTDMSN
inactive: SHP2 C-SH2 domain E139D 0.994 | [1] 1.79 | SHP2 N-SH2 domain L43F 0.94 | SHP2 N-SH2 domain T52S 0.868 | [2] 0.81
active: SHP2 N-SH2 domain T42A 3.78

B5: DNAI2_Y5_E2K (peptide)
chain: GMKIVYVYVKK
inactive: SHP2 C-SH2 domain E139D 1.71 | [1] 2.22 | SHP2 N-SH2 domain L43F 2.31 | SHP2 N-SH2 domain T42A 1.72 | SHP2 N-SH2 domain T52S 1.47 | [2] 1.36

B6: DNM2_Y626_P627H (peptide)
chain: LRAGVYHEKDQ
inactive: SHP2 C-SH2 domain E139D 1.2 | [1] 1.34 | SHP2 N-SH2 domain L43F 1 | SHP2 N-SH2 domain T42A 1.19 | SHP2 N-SH2 domain T52S 1.07 | [2] 1.31

B7: DNM2_Y563_K562E (peptide)
chain: EKEKEYMLPLD
inactive: SHP2 C-SH2 domain E139D 0.665 | [1] 0.645 | SHP2 N-SH2 domain L43F 0.695 | SHP2 N-SH2 domain T42A 0.622 | SHP2 N-SH2 domain T52S 0.622 | [2] 0.742

B8: DNAI2_Y5_E2K_YF (peptide)
chain: GMKIVYVFVKK
inactive: SHP2 C-SH2 domain E139D 1.7 | [1] 1.83 | SHP2 N-SH2 domain L43F 1.43 | SHP2 N-SH2 domain T42A 1.7 | SHP2 N-SH2 domain T52S 1.66 | [2] 1.82

B9: DOCK2_Y1555_D1558A (peptide)
chain: FFTEEYVRAHP
inactive: SHP2 C-SH2 domain E139D 1.17 | [1] 1.34 | SHP2 N-SH2 domain L43F 1.02 | SHP2 N-SH2 domain T42A 0.949 | SHP2 N-SH2 domain T52S 1.12 | [2] 1.2

B10: DNM2_Y463 (peptide)
chain: RIVTTYIRERE
inactive: SHP2 C-SH2 domain E139D 0.235 | [1] 0.245 | SHP2 N-SH2 domain L43F 0.201 | SHP2 N-SH2 domain T42A 0.214 | SHP2 N-SH2 domain T52S 0.201 | [2] 0.199

B11: DNMT3B_Y588_A585V (peptide)
chain: GIVTGYLVLKE
inactive: SHP2 C-SH2 domain E139D 1.39 | [1] 1.29 | SHP2 N-SH2 domain L43F 1.32 | SHP2 N-SH2 domain T42A 1.89 | SHP2 N-SH2 domain T52S 1.47 | [2] 1.59

B12: DNAI2_Y7_YF (peptide)
chain: EIVFVYVKKRS
inactive: SHP2 C-SH2 domain E139D 0.746 | [1] 0.761 | SHP2 N-SH2 domain L43F 0.763 | SHP2 N-SH2 domain T42A 0.67 | SHP2 N-SH2 domain T52S 0.756 | [2] 0.803

B13: DNAI2_Y7_E2K_YF (peptide)
chain: KIVFVYVKKRS
inactive: SHP2 C-SH2 domain E139D 1.59 | [1] 1.36 | SHP2 N-SH2 domain L43F 1.58 | SHP2 N-SH2 domain T42A 1.26 | SHP2 N-SH2 domain T52S 1.52 | [2] 1.25

B14: DNMT3B_Y815 (peptide)
chain: GFPVHYTDVSN
active: SHP2 N-SH2 domain T42A 6.65
inactive: SHP2 C-SH2 domain E139D 1.01 | [1] 2.04 | SHP2 N-SH2 domain L43F 2.12 | SHP2 N-SH2 domain T52S 2.42 | [2] 1.13

B15: DLK1_Y262_YF (peptide)
chain: RLPSGYGLAFR
inactive: SHP2 C-SH2 domain E139D 0.812 | [1] 0.849 | SHP2 N-SH2 domain L43F 0.784 | SHP2 N-SH2 domain T42A 0.731 | SHP2 N-SH2 domain T52S 0.707 | [2] 0.854

B16: DNAH3_Y1586 (peptide)
chain: KIVATYRLCSE
inactive: SHP2 C-SH2 domain E139D 0.647 | [1] 0.729 | SHP2 N-SH2 domain L43F 0.623 | SHP2 N-SH2 domain T42A 0.535 | SHP2 N-SH2 domain T52S 0.527 | [2] 0.6

B17: DNAH3_Y1586_V1583I (peptide)
chain: KIIATYRLCSE
inactive: SHP2 C-SH2 domain E139D 0.77 | [1] 0.905 | SHP2 N-SH2 domain L43F 0.726 | SHP2 N-SH2 domain T42A 0.819 | SHP2 N-SH2 domain T52S 0.687 | [2] 0.935

B18: DOCK3_Y548 (peptide)
chain: HELYVYKCDEN
inactive: SHP2 C-SH2 domain E139D 0.662 | [1] 0.541 | SHP2 N-SH2 domain L43F 0.419 | SHP2 N-SH2 domain T42A 0.588 | SHP2 N-SH2 domain T52S 0.46 | [2] 0.405

B19: DNM1_Y354 (peptide)
chain: DQIDTYELSGG
inactive: SHP2 C-SH2 domain E139D 0.541 | [1] 0.353 | SHP2 N-SH2 domain L43F 0.755 | SHP2 N-SH2 domain T42A 0.732 | SHP2 N-SH2 domain T52S 0.265 | [2] 0.296
